# Results taken from the supplement of paper PMC12217912.
# The other results are listed elsewhere or left out. Sequences were assembled here from the parent chain. Inactive controls read about 0.05.
# B1: TEV protease; numbered along this chain (parent)
# chain: MGESLFKGPRDYNPISSSICHLTNESDGHTTSLYGIGFGPFIITNKHLFRRNNGTLVVQSLHGVFKVKDTTTLQQHLVDGRDMIIIRMPKDFPPFPQKLKFREPQREERICLVTTNFQTKSMSSMVSDTSCTFPSGDGIFWKHWIQTKDGQCGSPLVSTRDGFIVGIHSASNFTNTNNYFTSVPKNFMELLTNQEAQQWVSGWRLNADSVLWGGHKVFMVKPEEPFQPVKEATQL
# Variants of: B1
# Assay: raw area under fraction-flipped curve 0-4 h after induction (AUC4h, not background-subtracted), DNA-recorder readout of cleavage of the substrate (dimensionless); higher = more cleavage of the substrate by the protease variant
# Settings: temperature: 34 °C; time window: 0-4 h after rhamnose induction
# Description: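 In vivo DNA recorder in E. coli TOP10(DE3) ΔrhaA at 34 °C. Each TEVp single-site mutant (parent TEVp 0) is paired with a single-site variant of the 7-mer TEVs (canonical ENLYFQ|S). The substrate sits between flexible linkers in a Bxb1-sfGFP-TEVs-SsrA fusion, so cleavage stabilises Bxb1 and speeds flipping of a recombination array, read by NGS. The value is the raw area under the fraction-flipped curve over 0-4 h after rhamnose induction (AUC4h), with ≥20 reads per time point. It is not background-subtracted; inactive controls average about 0.047.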
# 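Also: Bxb1 expression induced with 0.2% (w/v) L-rhamnose at OD600 near 0.5, cultures sampled hourly, flipped fraction per protease–substrate barcode pair counted by paired-end Illumina sequencing.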
Variant,area with substrate ENLAFQS,area with substrate ENLCFQS,area with substrate ENLDFQS,area with substrate ENLEFQS,area with substrate ENLFFQS,area with substrate ENLHFQS,area with substrate ENLIFQS,area with substrate ENLKFQS,area with substrate ENLLFQS,area with substrate ENLNFQS,area with substrate ENLPFQS,area with substrate ENLQFQS,area with substrate ENLRFQS,area with substrate ENLSFQS,area with substrate ENLVFQS,area with substrate ENLWFQS,area with substrate ENLMFQS,area with substrate ENLGFQS,area with substrate ENLTFQS
MGESLFKGPRDYNPISSSICHLTNESDGHTTSLYGIGFGPFIITNKHLFRRNNGTLVVQSLHGVFKVKDTTTLQQHLVDGRDMIIIRMPKDFPPFPQKLKFREPQREERICLVTTNFQTKSMSSMVSDTSCTFPSGDGIFWKAWIQTKDGQCGSPLVSTRDGFIVGIHSASNFTNTNNYFTSVPKNFMELLTNQEAQQWVSGWRLNADSVLWGGHKVFMVKPEEPFQPVKEATQL [H143A],0.0515,0.0483,0.0612,0.0679,0.0719,0.0737,0.0806,0.0698,0.0411,0.0646,0.0737,0.0567,0.065,0.0639,0.0737,0.0661,–,–,–
MGESLFKGPRDYNPISSSICHLTNESDGHTTSLYGIGFGPFIITNKHLFRRNNGTLVVQSLHGVFKVKDTTTLQQHLVDGRDMIIIRMPKDFPPFPQKLKFREPQREERICLVTTNFQTKSMSSMVSDTSCTFPSGDGIFWKCWIQTKDGQCGSPLVSTRDGFIVGIHSASNFTNTNNYFTSVPKNFMELLTNQEAQQWVSGWRLNADSVLWGGHKVFMVKPEEPFQPVKEATQL [H143C],0.0608,–,0.063,–,0.0642,0.0598,–,0.0719,0.0584,0.0592,0.0447,–,0.0517,0.0642,0.0915,0.0391,0.0565,–,–
MGESLFKGPRDYNPISSSICHLTNESDGHTTSLYGIGFGPFIITNKHLFRRNNGTLVVQSLHGVFKVKDTTTLQQHLVDGRDMIIIRMPKDFPPFPQKLKFREPQREERICLVTTNFQTKSMSSMVSDTSCTFPSGDGIFWKPWIQTKDGQCGSPLVSTRDGFIVGIHSASNFTNTNNYFTSVPKNFMELLTNQEAQQWVSGWRLNADSVLWGGHKVFMVKPEEPFQPVKEATQL [H143P],0.0649,–,0.0586,0.0639,0.0596,–,0.0507,0.05,0.0321,0.0667,0.0623,0.0497,0.0669,0.053,–,0.0505,–,0.0656,–
MGESLFKGPRDYNPISSSICHLTNESDGHTTSLYGIGFGPFIITNKHLFRRNNGTLVVQSLHGVFKVKDTTTLQQHLVDGRDMIIIRMPKDFPPFPQKLKFREPQREERICLVTTNFQTKSMSSMVSDTSCTFPSGDGIFWKHWFQTKDGQCGSPLVSTRDGFIVGIHSASNFTNTNNYFTSVPKNFMELLTNQEAQQWVSGWRLNADSVLWGGHKVFMVKPEEPFQPVKEATQL [I145F],0.061,0.117,–,–,0.0788,–,0.09,–,–,–,0.0288,–,0.076,–,0.0886,0.0641,0.0596,0.0699,–
MGESLFKGPRDYNPISSSICHLTNESDGHTTSLYGIGFGPFIITNKHLFRRNNGTLVVQSLHGVFKVKDTTTLQQHLVDGRDMIIIRMPKDFPPFPQKLKFREPQREERICLVTTNFQTKSMSSMVSDTSCTFPSGDGIFWKHWIRTKDGQCGSPLVSTRDGFIVGIHSASNFTNTNNYFTSVPKNFMELLTNQEAQQWVSGWRLNADSVLWGGHKVFMVKPEEPFQPVKEATQL [Q146R],0.0569,0.0741,0.075,0.067,0.0867,0.0741,0.0838,0.0728,0.0829,0.074,0.0687,0.0681,0.0627,0.0664,0.0968,0.0696,–,–,–
MGESLFKGPRDYNPISSSICHLTNESDGHTTSLYGIGFGPFIITNKHLFRRNNGTLVVQSLHGVFKVKDTTTLQQHLVDGRDMIIIRMPKDFPPFPQKLKFREPQREERICLVTTNFQTKSMSSMVSDTSCTFPSGDGIFWKHWIQEKDGQCGSPLVSTRDGFIVGIHSASNFTNTNNYFTSVPKNFMELLTNQEAQQWVSGWRLNADSVLWGGHKVFMVKPEEPFQPVKEATQL [T147E],0.0609,0.0627,0.0675,0.067,0.0641,0.0748,0.0681,0.0456,0.0538,0.0665,0.0625,0.059,0.0595,0.0506,–,–,0.0798,0.0753,–
MGESLFKGPRDYNPISSSICHLTNESDGHTTSLYGIGFGPFIITNKHLFRRNNGTLVVQSLHGVFKVKDTTTLQQHLVDGRDMIIIRMPKDFPPFPQKLKFREPQREERICLVTTNFQTKSMSSMVSDTSCTFPSGDGIFWKHWIQNKDGQCGSPLVSTRDGFIVGIHSASNFTNTNNYFTSVPKNFMELLTNQEAQQWVSGWRLNADSVLWGGHKVFMVKPEEPFQPVKEATQL [T147N],0.0475,–,0.0618,0.0625,0.063,0.0349,0.0629,0.0513,0.0548,0.066,0.071,0.0583,–,0.0649,–,–,0.0623,0.0614,–
MGESLFKGPRDYNPISSSICHLTNESDGHTTSLYGIGFGPFIITNKHLFRRNNGTLVVQSLHGVFKVKDTTTLQQHLVDGRDMIIIRMPKDFPPFPQKLKFREPQREERICLVTTNFQTKSMSSMVSDTSCTFPSGDGIFWKHWIQTGDGQCGSPLVSTRDGFIVGIHSASNFTNTNNYFTSVPKNFMELLTNQEAQQWVSGWRLNADSVLWGGHKVFMVKPEEPFQPVKEATQL [K148G],0.0744,0.0677,0.0546,–,0.0507,0.0549,0.0711,0.0712,0.0596,0.0574,0.0665,–,0.0695,0.0674,0.0733,0.0501,0.0472,–,–
MGESLFKGPRDYNPISSSICHLTNESDGHTTSLYGIGFGPFIITNKHLFRRNNGTLVVQSLHGVFKVKDTTTLQQHLVDGRDMIIIRMPKDFPPFPQKLKFREPQREERICLVTTNFQTKSMSSMVSDTSCTFPSGDGIFWKHWIQTKDKQCGSPLVSTRDGFIVGIHSASNFTNTNNYFTSVPKNFMELLTNQEAQQWVSGWRLNADSVLWGGHKVFMVKPEEPFQPVKEATQL [G150K],0.0538,0.0645,0.0691,0.0638,0.078,0.0576,0.0559,0.0513,0.0554,–,–,0.0812,0.0449,0.0523,0.0523,0.0481,–,–,–
MGESLFKGPRDYNPISSSICHLTNESDGHTTSLYGIGFGPFIITNKHLFRRNNGTLVVQSLHGVFKVKDTTTLQQHLVDGRDMIIIRMPKDFPPFPQKLKFREPQREERICLVTTNFQTKSMSSMVSDTSCTFPSGDGIFWKHWIQTKDRQCGSPLVSTRDGFIVGIHSASNFTNTNNYFTSVPKNFMELLTNQEAQQWVSGWRLNADSVLWGGHKVFMVKPEEPFQPVKEATQL [G150R],0.0524,0.0656,0.0608,0.063,0.067,0.0574,0.0587,0.0635,0.0541,0.0692,0.0534,0.0708,0.068,0.0629,0.0482,0.112,0.045,–,0.0499
MGESLFKGPRDYNPISSSICHLTNESDGHTTSLYGIGFGPFIITNKHLFRRNNGTLVVQSLHGVFKVKDTTTLQQHLVDGRDMIIIRMPKDFPPFPQKLKFREPQREERICLVTTNFQTKSMSSMVSDTSCTFPSGDGIFWKHWIQTKDGQSGSPLVSTRDGFIVGIHSASNFTNTNNYFTSVPKNFMELLTNQEAQQWVSGWRLNADSVLWGGHKVFMVKPEEPFQPVKEATQL [C152S],0.0596,–,0.0646,–,0.0611,0.0568,0.0682,0.066,0.0633,0.0586,0.055,–,0.0595,0.0509,0.066,0.0583,0.0652,0.0667,0.0544
MGESLFKGPRDYNPISSSICHLTNESDGHTTSLYGIGFGPFIITNKHLFRRNNGTLVVQSLHGVFKVKDTTTLQQHLVDGRDMIIIRMPKDFPPFPQKLKFREPQREERICLVTTNFQTKSMSSMVSDTSCTFPSGDGIFWKHWIQTKDGQCGSALVSTRDGFIVGIHSASNFTNTNNYFTSVPKNFMELLTNQEAQQWVSGWRLNADSVLWGGHKVFMVKPEEPFQPVKEATQL [P155A],0.0618,0.0792,0.0652,0.0602,0.0874,–,0.0791,0.0796,0.0938,0.0591,0.0631,0.082,0.0636,0.0531,–,0.068,0.0505,0.0712,0.0757
MGESLFKGPRDYNPISSSICHLTNESDGHTTSLYGIGFGPFIITNKHLFRRNNGTLVVQSLHGVFKVKDTTTLQQHLVDGRDMIIIRMPKDFPPFPQKLKFREPQREERICLVTTNFQTKSMSSMVSDTSCTFPSGDGIFWKHWIQTKDGQCGSWLVSTRDGFIVGIHSASNFTNTNNYFTSVPKNFMELLTNQEAQQWVSGWRLNADSVLWGGHKVFMVKPEEPFQPVKEATQL [P155W],0.0703,0.0608,0.06,0.0617,0.0582,0.0547,0.0512,0.0505,0.0282,0.0628,0.0549,0.0473,–,0.0578,0.0616,0.0477,0.0511,0.0643,–
MGESLFKGPRDYNPISSSICHLTNESDGHTTSLYGIGFGPFIITNKHLFRRNNGTLVVQSLHGVFKVKDTTTLQQHLVDGRDMIIIRMPKDFPPFPQKLKFREPQREERICLVTTNFQTKSMSSMVSDTSCTFPSGDGIFWKHWIQTKDGQCGSPWVSTRDGFIVGIHSASNFTNTNNYFTSVPKNFMELLTNQEAQQWVSGWRLNADSVLWGGHKVFMVKPEEPFQPVKEATQL [L156W],0.0629,0.06,0.0627,0.0691,0.0585,0.0633,0.0606,0.0642,0.0657,0.0659,0.0591,0.0539,0.057,0.062,0.0589,0.0629,0.109,0.0727,–
MGESLFKGPRDYNPISSSICHLTNESDGHTTSLYGIGFGPFIITNKHLFRRNNGTLVVQSLHGVFKVKDTTTLQQHLVDGRDMIIIRMPKDFPPFPQKLKFREPQREERICLVTTNFQTKSMSSMVSDTSCTFPSGDGIFWKHWIQTKDGQCGSPLASTRDGFIVGIHSASNFTNTNNYFTSVPKNFMELLTNQEAQQWVSGWRLNADSVLWGGHKVFMVKPEEPFQPVKEATQL [V157A],0.0593,–,–,0.0535,0.0718,0.0655,0.0728,0.0835,0.0629,0.0627,0.0551,0.0626,–,0.0633,–,0.0673,0.13,–,–
MGESLFKGPRDYNPISSSICHLTNESDGHTTSLYGIGFGPFIITNKHLFRRNNGTLVVQSLHGVFKVKDTTTLQQHLVDGRDMIIIRMPKDFPPFPQKLKFREPQREERICLVTTNFQTKSMSSMVSDTSCTFPSGDGIFWKHWIQTKDGQCGSPLVSTRCGFIVGIHSASNFTNTNNYFTSVPKNFMELLTNQEAQQWVSGWRLNADSVLWGGHKVFMVKPEEPFQPVKEATQL [D161C],0.0605,0.0574,0.0591,0.0655,0.0674,0.0413,0.0593,0.0745,0.0619,0.0556,0.0666,0.0607,0.0672,0.0592,–,0.063,–,0.0647,–
MGESLFKGPRDYNPISSSICHLTNESDGHTTSLYGIGFGPFIITNKHLFRRNNGTLVVQSLHGVFKVKDTTTLQQHLVDGRDMIIIRMPKDFPPFPQKLKFREPQREERICLVTTNFQTKSMSSMVSDTSCTFPSGDGIFWKHWIQTKDGQCGSPLVSTRFGFIVGIHSASNFTNTNNYFTSVPKNFMELLTNQEAQQWVSGWRLNADSVLWGGHKVFMVKPEEPFQPVKEATQL [D161F],0.035,0.0573,0.0588,–,0.064,0.0586,0.0514,0.0423,0.0589,0.066,0.0519,0.0557,0.0633,0.0143,–,–,–,0.059,–
